{"source": "the supplement of paper PMC8728848", "binders": {"B1": {"name": "ArathEULS3 (Arabidopsis thaliana), Q945P1 (protein)", "chain": "MEHHHQHHRHHQRDDGEDDRQSFGVPPPHVDAPPQPHGLYQSQPHFDPYAPTPQAPAPYRSETQFEPHAPPPYRSEPYFETPAPPPSFGHVSHVGHQSPNESYPPEHHRYGGYQQPSNSLLESHGDHSGVTHVAHHSSNQPQSSSGVYHKPDENRLPDNLAGLAGRATVKVYSKAEPNYNLTIRDGKVILAPADPSDEAQHWYKDEKYSTKVKDADGHPCFALVNKATGEAMKHSVGATHPVHLIRYVPDKLDESVLWTESKDFGDGYRTIRMVNNTRLNVDAYHGDSKSGGVRDGTTIVLWDWNKGDNQLWKIFPFILEQKLISEEDLNSAVDHHHHHH"}}, "assay_in_all_cases": "glycan array binding signal (z-score within array); higher = stronger binding", "settings_in_all_cases": "glycan notation: IUPAC condensed, linker removed", "key": {"Gal6S(b1-3)GlcNAc6S": {"biological_target": "Gal6S(b1-3)GlcNAc6S", "in_short": "(§1)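 Glycan array binding is given as a within-array Z-score, which can be read as non-binding when negative. The arrays, 3228 of them, came from the Consortium for Functional Glycomics database and were retained only where the protein sequence was available. Z-scores were averaged across arrays of the same protein sequence at different concentrations or buffers and across linkers.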"}, "Gal6S(b1-4)Glc": {"biological_target": "Gal6S(b1-4)Glc", "in_short": "as §1"}, "Gal6S(b1-4)Glc6S": {"biological_target": "Gal6S(b1-4)Glc6S", "in_short": "as §1"}, "Gal6S(b1-4)GlcNAc": {"biological_target": "Gal6S(b1-4)GlcNAc", "in_short": "as §1"}, "Gal6S(b1-4)GlcNAc6S": {"biological_target": "Gal6S(b1-4)GlcNAc6S", "in_short": "as §1"}, "GalNAc(a1-3)Gal": {"biological_target": "GalNAc(a1-3)Gal", "in_short": "as §1"}, "GalNAc(a1-3)GalNAc": {"biological_target": "GalNAc(a1-3)GalNAc", "in_short": "as §1"}, "[1]": {"biological_target": "GalNAc(a1-3)GalNAc(b1-3)Gal(a1-4)Gal(b1-4)Glc", "in_short": "as §1"}, "[2]": {"biological_target": "GalNAc(a1-3)GalNAc(b1-3)Gal(a1-4)Gal(b1-4)GlcNAc", "in_short": "as §1"}, "GalNAc(b1-3)Gal": {"biological_target": "GalNAc(b1-3)Gal", "in_short": "as §1"}, "[3]": {"biological_target": "GalNAc(b1-3)Gal(a1-4)Gal(b1-4)GlcNAc", "in_short": "as §1"}, "[4]": {"biological_target": "GalNAc(b1-3)Gal(a1-4)Gal(b1-4)GlcNAc(b1-3)Gal(b1-4)Glc", "in_short": "as §1"}, "[5]": {"biological_target": "GalNAc(b1-3)Gal(a1-6)Gal(b1-4)Glc", "in_short": "as §1"}, "GalNAc(b1-3)GalNAc": {"biological_target": "GalNAc(b1-3)GalNAc", "in_short": "as §1"}, "GalNAc(b1-4)Gal(b1-4)Glc": {"biological_target": "GalNAc(b1-4)Gal(b1-4)Glc", "in_short": "as §1"}, "GalNAc(b1-4)GlcNAc": {"biological_target": "GalNAc(b1-4)GlcNAc", "in_short": "as §1"}, "[6]": {"biological_target": "GalNAc(b1-4)GlcNAc(b1-2)Man(a1-3)[GalNAc(b1-4)GlcNAc(b1-2)Man(a1-6)]Man(b1-4)GlcNAc(b1-4)GlcNAc", "in_short": "as §1"}, "GalNAc(b1-4)GlcNAc6S": {"biological_target": "GalNAc(b1-4)GlcNAc6S", "in_short": "as §1"}, "GalNAc(b1-6)GalNAc": {"biological_target": "GalNAc(b1-6)GalNAc", "in_short": "as §1"}, "GalNAc3S(b1-4)GlcNAc": {"biological_target": "GalNAc3S(b1-4)GlcNAc", "in_short": "as §1"}, "GalNAc3S(b1-4)GlcNAc3S": {"biological_target": "GalNAc3S(b1-4)GlcNAc3S", "in_short": "as §1"}, "GalNAc4S6S(b1-4)GlcNAc": {"biological_target": "GalNAc4S6S(b1-4)GlcNAc", "in_short": "as §1"}, "GalNAc6S(b1-4)GlcNAc": {"biological_target": "GalNAc6S(b1-4)GlcNAc", "in_short": "as §1"}, "Glc(a1-4)Glc": {"biological_target": "Glc(a1-4)Glc", "in_short": "as §1"}, "[7]": {"biological_target": "Glc(a1-4)Glc(a1-4)Glc(a1-4)Glc", "in_short": "as §1"}, "Glc(a1-6)Glc(a1-6)Glc": {"biological_target": "Glc(a1-6)Glc(a1-6)Glc", "in_short": "as §1"}, "[8]": {"biological_target": "Glc(a1-6)Glc(a1-6)Glc(a1-6)Glc", "in_short": "as §1"}, "Glc(b1-4)Glc": {"biological_target": "Glc(b1-4)Glc", "in_short": "as §1"}, "Glc(b1-6)Glc": {"biological_target": "Glc(b1-6)Glc", "in_short": "as §1"}, "GlcA(b1-3)Gal": {"biological_target": "GlcA(b1-3)Gal", "in_short": "as §1"}, "GlcA(b1-3)GlcNAc": {"biological_target": "GlcA(b1-3)GlcNAc", "in_short": "as §1"}, "GlcA(b1-6)Gal": {"biological_target": "GlcA(b1-6)Gal", "in_short": "as §1"}, "[9]": {"biological_target": "GlcNAc(a1-3)Gal(b1-4)GlcNAc", "in_short": "as §1"}, "[10]": {"biological_target": "GlcNAc(a1-4)Gal(b1-3)GlcNAc", "in_short": "as §1"}, "[11]": {"biological_target": "GlcNAc(a1-4)Gal(b1-4)GalNAc", "in_short": "as §1"}, "[12]": {"biological_target": "GlcNAc(a1-4)Gal(b1-4)GlcNAc", "in_short": "as §1"}, "[13]": {"biological_target": "GlcNAc(a1-4)Gal(b1-4)GlcNAc(b1-3)Gal(b1-4)Glc", "in_short": "as §1"}, "[14]": {"biological_target": "GlcNAc(a1-4)Gal(b1-4)GlcNAc(b1-3)Gal(b1-4)GlcNAc", "in_short": "as §1"}}, "note": "This is one part of the list.", "data": [{"binder": "B1", "values": [{"measurement": "glycan array binding signal (z-score)", "setting": "Gal6S(b1-3)GlcNAc6S", "value": -0.256}, {"measurement": "glycan array binding signal (z-score)", "setting": "Gal6S(b1-4)Glc", "value": -0.334}, {"measurement": "glycan array binding signal (z-score)", "setting": "Gal6S(b1-4)Glc6S", "value": -0.38}, {"measurement": "glycan array binding signal (z-score)", "setting": "Gal6S(b1-4)GlcNAc", "value": -0.315}, {"measurement": "glycan array binding signal (z-score)", "setting": "Gal6S(b1-4)GlcNAc6S", "value": -0.179}, {"measurement": "glycan array binding signal (z-score)", "setting": "GalNAc(a1-3)Gal", "value": -0.087}, {"measurement": "glycan array binding signal (z-score)", "setting": "GalNAc(a1-3)GalNAc", "value": -0.218}, {"measurement": "glycan array binding signal (z-score)", "setting": "[1]", "value": -0.262}, {"measurement": "glycan array binding signal (z-score)", "setting": "[2]", "value": -0.339}, {"measurement": "glycan array binding signal (z-score)", "setting": "GalNAc(b1-3)Gal", "value": -0.172}, {"measurement": "glycan array binding signal (z-score)", "setting": "[3]", "value": -0.074}, {"measurement": "glycan array binding signal (z-score)", "setting": "[4]", "value": -0.327}, {"measurement": "glycan array binding signal (z-score)", "setting": "[5]", "value": -0.269}, {"measurement": "glycan array binding signal (z-score)", "setting": "GalNAc(b1-3)GalNAc", "value": 0.511}, {"measurement": "glycan array binding signal (z-score)", "setting": "GalNAc(b1-4)Gal(b1-4)Glc", "value": 1.05}, {"measurement": "glycan array binding signal (z-score)", "setting": "GalNAc(b1-4)GlcNAc", "value": -0.213}, {"measurement": "glycan array binding signal (z-score)", "setting": "[6]", "value": -0.099}, {"measurement": "glycan array binding signal (z-score)", "setting": "GalNAc(b1-4)GlcNAc6S", "value": -0.429}, {"measurement": "glycan array binding signal (z-score)", "setting": "GalNAc(b1-6)GalNAc", "value": -0.421}, {"measurement": "glycan array binding signal (z-score)", "setting": "GalNAc3S(b1-4)GlcNAc", "value": -0.111}, {"measurement": "glycan array binding signal (z-score)", "setting": "GalNAc3S(b1-4)GlcNAc3S", "value": -0.173}, {"measurement": "glycan array binding signal (z-score)", "setting": "GalNAc4S6S(b1-4)GlcNAc", "value": -0.105}, {"measurement": "glycan array binding signal (z-score)", "setting": "GalNAc6S(b1-4)GlcNAc", "value": -0.126}, {"measurement": "glycan array binding signal (z-score)", "setting": "Glc(a1-4)Glc", "value": -0.272}, {"measurement": "glycan array binding signal (z-score)", "setting": "[7]", "value": 0.568}, {"measurement": "glycan array binding signal (z-score)", "setting": "Glc(a1-6)Glc(a1-6)Glc", "value": -0.327}, {"measurement": "glycan array binding signal (z-score)", "setting": "[8]", "value": -0.076}, {"measurement": "glycan array binding signal (z-score)", "setting": "Glc(b1-4)Glc", "value": -0.138}, {"measurement": "glycan array binding signal (z-score)", "setting": "Glc(b1-6)Glc", "value": -0.278}, {"measurement": "glycan array binding signal (z-score)", "setting": "GlcA(b1-3)Gal", "value": -0.214}, {"measurement": "glycan array binding signal (z-score)", "setting": "GlcA(b1-3)GlcNAc", "value": -0.102}, {"measurement": "glycan array binding signal (z-score)", "setting": "GlcA(b1-6)Gal", "value": -0.028}, {"measurement": "glycan array binding signal (z-score)", "setting": "[9]", "value": -0.273}, {"measurement": "glycan array binding signal (z-score)", "setting": "[10]", "value": 0.245}, {"measurement": "glycan array binding signal (z-score)", "setting": "[11]", "value": -0.031}, {"measurement": "glycan array binding signal (z-score)", "setting": "[12]", "value": 0.01}, {"measurement": "glycan array binding signal (z-score)", "setting": "[13]", "value": -0.112}, {"measurement": "glycan array binding signal (z-score)", "setting": "[14]", "value": -0.22}]}]}
